Experimental data as given in PubChem BioAssay AID624172 (National Center for Advancing Translational Sciences (NCATS), 2012).
The campaign covered roughly 380,000 compounds. About 25 (0.007%) were called active. The shares of active, inactive and inconclusive entries below differ from those in the screen. Calls come from the whole dose curve; as a rule, active = well fitted activation curve with a large enough effect; inconclusive = small, poorly fitted or top-dose-only effect; inactive = no such curve, though single readings can be large or run the other way. No potency is given beside an inconclusive call; the fits are too rough.

Molecular target: Glucagon-like peptide 1 receptor (Homo sapiens) (UniProt P43220)
Test: qHTS of GLP-1 Receptor Agonists; for activation: % of control where 0% means no effect
Conditions: HEK293 GLP-1R CRE-luciferase, luminescence, 4-6 h, cells express a hypersensitive GLP-1R form; activation: at 45.6 µM (top of the series) unless noted
Potency is the fitted concentration of half-maximal effect; tags give direction and shape of the fitted curve.

Chain of UniProt P43220 (P43220 whole entry, looked up): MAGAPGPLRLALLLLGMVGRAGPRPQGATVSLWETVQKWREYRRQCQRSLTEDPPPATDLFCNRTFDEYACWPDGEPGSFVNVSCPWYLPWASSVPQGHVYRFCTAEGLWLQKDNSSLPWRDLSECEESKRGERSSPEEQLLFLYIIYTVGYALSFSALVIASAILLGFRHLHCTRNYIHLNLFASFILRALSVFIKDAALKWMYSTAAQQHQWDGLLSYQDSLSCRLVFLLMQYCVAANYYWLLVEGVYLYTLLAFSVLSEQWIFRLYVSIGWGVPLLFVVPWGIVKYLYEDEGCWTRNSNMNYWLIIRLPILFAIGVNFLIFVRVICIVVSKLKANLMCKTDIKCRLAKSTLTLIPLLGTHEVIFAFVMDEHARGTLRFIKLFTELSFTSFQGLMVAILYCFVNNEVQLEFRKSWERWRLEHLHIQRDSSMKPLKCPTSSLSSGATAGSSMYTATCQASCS

Row | Structure (SMILES) | activation | Potency
1 | O=C(c1ccccc1)c1cccc2ccccc12 | inconclusive: 58.5% [activator] | –
2 | C/C(=N\NC(=S)NCc1ccccc1)c1ccc2c(c1)OCCO2 | – | inconclusive [activator, partial curve, poor fit]
3 | CCN(CC)C(=O)CCNS(=O)(=O)c1ccc(C)cc1 | – | inconclusive [activator, single point]
4 | c1ccc2c(c1)oc1c(Nc3ccc4c(c3)OCCO4)ncnc12 | – | inconclusive [activator, partial curve, poor fit]
5 | CCCNc1ncnc2sc(C)c(C)c12 | – | inconclusive [activator, single point]
6 | CC1CN(c2ncnc3c2oc2ccccc23)CC(C)O1 (stereo not drawn) | – | inconclusive [activator, partial curve, poor fit]
7 | COc1ccc(CN(C)C(=S)Nc2ccc(OC(F)F)cc2)cc1 | – | inactive
8 | COc1ccc(CNC(=O)Cn2nnc(-c3ccc(NC(=O)C4CCCCC4)cc3)n2)cc1 | – | inconclusive [activator, partial curve, poor fit]
9 | CCCn1cnc2c(SCc3ccccc3)nc(N)nc21 | – | inconclusive [activator, partial curve, poor fit]
10 | CCOc1ccc2nc(C)cc(C(=O)O)c2c1 | – | inactive
11 | CN=C1c2ccccc2CN1c1cccc(C(=O)OC)c1 | – | inconclusive [activator, single point]
12 | CCOc1ccc(-c2nc(CSc3nncs3)cs2)cc1OC | – | inconclusive [activator, single point]
13 | COc1ccc(CCNc2ncnc3c2c(C)c(C)n3CCO)cc1OC | – | inconclusive [activator, single point]
14 | N/C(Cc1ccc(Cl)c(Cl)c1)=N\OC(=O)c1ccc(Br)o1 | – | inconclusive [activator, single point]
15 | OC(C1=CC(=Cc2ccncc2)c2ccccc21)c1ccncc1 (stereo not drawn) | – | inactive
16 | CC1(C(=O)Nc2cnc3ccccc3c2)CCN1CCc1ccccc1 (stereo not drawn) | – | inconclusive [activator, partial curve, poor fit]
17 | CNS(=O)(=O)c1ccc2c3c(cccc13)C(=O)N2 | – | inconclusive [activator, partial curve, poor fit]
18 | CC1CCN(CCCNC(=O)c2cc3c(Cl)nc4ccccc4c3s2)CC1 | – | inconclusive [activator, partial curve, poor fit]
19 | O=C(CCS(=O)(=O)c1ccc(Cl)cc1)Nc1cccc(S(=O)(=O)N2CCCCCC2)c1 | – | inactive
20 | COc1ccc(-c2c(C)nn3c(Cl)c(C)c(C)nc23)cc1 | – | inconclusive [activator, partial curve, poor fit]
21 | CC(=O)Nc1ccc(S(=O)(=O)NNC(=O)COc2ccc(C(C)(C)C)cc2)cc1 | – | inconclusive [activator, full curve, poor fit]
22 | O=c1cc(Cl)c(-c2ccccc2)nn1Cc1ccc(Cl)cc1 | – | inconclusive [activator, partial curve, poor fit]

Row | Structure (SMILES) | activation | Potency
23 | CCC(C)Nc1nc(N)c([N+](=O)[O-])c(Nc2ccccc2OC)n1 (stereo not drawn) | – | inconclusive [activator, partial curve]
24 | COc1ccc(CN(C(=O)c2cc(=O)c3cc(C)cc(C)c3o2)C2CCS(=O)(=O)C2)cc1 (stereo not drawn) | – | inconclusive [activator, partial curve]
25 | CCc1nc(SCCO)c2oc3ccccc3c2n1 | – | inconclusive [activator, partial curve, poor fit]
26 | COc1ccc(-c2ccc(SCC(=O)N3CCCC3)nn2)cc1OC | – | inconclusive [activator, partial curve, poor fit]
27 | CC(=O)N[C@@H]1c2c(ccc3ccccc23)OC[C@@H]1COC(C)=O | – | inactive
28 | COC(=O)c1ccc(CSc2nnc3nc(C)cc(C)n23)cc1 | – | inconclusive [activator, partial curve]
29 | CCN1CCN(C2=C(Cl)C(=O)N(Cc3ccccc3)C2=O)CC1 | – | inconclusive [activator, partial curve]
30 | CSc1ccc(COC(=O)c2cc([N+](=O)[O-])ccc2N2CCOCC2)cc1 | – | inconclusive [activator, single point]
31 | COc1ccc(-c2sc3cc(OC)c(OC)cc3c2C#CC(C)(C)O)cc1 | – | inconclusive [activator, single point]
32 | Cc1c(C(=O)N2CCN(c3ccc([N+](=O)[O-])cc3)CC2)sc2ncn(CC(=O)N3CCOCC3)c(=O)c12 | – | inactive
33 | Cc1nc(-c2ccc(S(=O)(=O)N3CCCCCC3)cc2)cs1 | – | inconclusive [activator, single point]
34 | COc1cc(-c2cc3nc4ccccc4n3c(N)c2C#N)cc(OC)c1OC | – | inconclusive [activator, full curve, poor fit]
35 | Cc1cc2sc3ccccc3c(=O)c2c(C)c1O | – | inconclusive [activator, single point]
36 | O=C(/C=C/c1ccccc1Cl)Nc1ccccc1 | – | inactive
37 | COc1ccc(CCNC(=O)COc2ccc(S(=O)(=O)NC3CCCCC3)cc2Cl)cc1OC | – | inconclusive [activator, single point]
38 | COc1cccc(C(C)(O)c2nc(-c3ccc(OC)c(OC)c3)cs2)c1 (stereo not drawn) | – | inconclusive [activator, partial curve]
39 | O=C(c1ccc(Cl)cc1)c1c[nH]c(C(=O)NNc2cccc(Cl)n2)c1 | – | inactive
40 | CCc1ccc2nc(SCC(=O)N(CC)CC)c(C#N)cc2c1 | – | inconclusive [activator, single point]
41 | COc1ccc(C(O)c2nc(-c3ccc4c(c3)OCO4)cs2)cc1 (stereo not drawn) | – | inconclusive [activator, single point]
42 | Cc1ncoc1C(=O)N1CCCC(CCC(=O)NCc2ccccc2F)C1 (stereo not drawn) | – | inactive
43 | COc1ccc(-c2csc(C3=C(O)CN(CCCN4CCCC4=O)C3=N)n2)cc1OC | – | inconclusive [activator, partial curve, poor fit]
